From publication PMC4336329 (PLoS ONE, 2015)
Screen size: about 310,000 compounds; about 14,000 (4.5%) showed an effect of 50% or more. Effects have a minus sign here. The list shows a part of the results.

target: human ether-à-go-go-related gene (hERG) potassium channel (human, UniProt Q12809); test: primary screen, population patch clamp on CHO cells stably expressing hERG
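Also: peak tail current of the secondary pulse compared with the same well before compound.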

human ether-à-go-go-related gene (hERG) potassium channel, sequence (Q12809 whole entry, looked up): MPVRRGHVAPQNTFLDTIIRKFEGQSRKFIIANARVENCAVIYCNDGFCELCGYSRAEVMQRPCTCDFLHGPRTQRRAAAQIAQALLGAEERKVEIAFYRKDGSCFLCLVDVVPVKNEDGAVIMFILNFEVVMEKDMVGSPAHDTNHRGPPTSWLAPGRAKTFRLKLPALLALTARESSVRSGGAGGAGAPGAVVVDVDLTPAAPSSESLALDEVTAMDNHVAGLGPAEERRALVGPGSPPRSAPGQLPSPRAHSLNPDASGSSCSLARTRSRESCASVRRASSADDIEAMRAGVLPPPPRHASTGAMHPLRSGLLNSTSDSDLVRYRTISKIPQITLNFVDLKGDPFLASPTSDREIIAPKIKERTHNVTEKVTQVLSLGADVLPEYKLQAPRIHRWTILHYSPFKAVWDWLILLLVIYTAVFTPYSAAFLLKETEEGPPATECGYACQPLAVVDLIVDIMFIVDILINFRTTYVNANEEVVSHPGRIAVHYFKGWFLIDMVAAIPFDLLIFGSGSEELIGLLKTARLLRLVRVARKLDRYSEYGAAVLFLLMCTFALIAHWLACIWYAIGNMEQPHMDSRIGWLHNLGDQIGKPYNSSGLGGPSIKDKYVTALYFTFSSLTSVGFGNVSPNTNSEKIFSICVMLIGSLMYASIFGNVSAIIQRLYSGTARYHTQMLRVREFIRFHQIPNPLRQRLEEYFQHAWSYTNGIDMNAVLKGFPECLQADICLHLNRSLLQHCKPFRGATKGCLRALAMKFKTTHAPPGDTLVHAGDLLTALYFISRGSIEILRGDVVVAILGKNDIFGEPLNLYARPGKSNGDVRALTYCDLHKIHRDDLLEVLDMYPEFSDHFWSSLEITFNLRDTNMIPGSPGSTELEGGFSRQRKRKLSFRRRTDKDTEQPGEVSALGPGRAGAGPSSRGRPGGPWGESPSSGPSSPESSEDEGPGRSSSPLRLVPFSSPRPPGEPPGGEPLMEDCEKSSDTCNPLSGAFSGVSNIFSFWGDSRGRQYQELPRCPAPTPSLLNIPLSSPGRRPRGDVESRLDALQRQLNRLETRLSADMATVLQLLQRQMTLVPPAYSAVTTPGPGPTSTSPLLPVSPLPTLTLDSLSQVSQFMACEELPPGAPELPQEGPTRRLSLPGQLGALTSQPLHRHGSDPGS

Row | SMILES | hERG current change (%, negative = inhibition) at 10uM [%]
1 | COc1ccc(S(=O)(=O)N2CCC(C(=O)N[C@@H](C)C(=O)NCc3ccncc3)CC2)cc1 | 11.1
2 | O=C(CNC(=O)c1cncc(Br)c1)Nc1ccc(F)c(F)c1F | 8.94
3 | COC(=O)C1CN(S(=O)(=O)c2ccc(C)cc2)CCN1S(=O)(=O)c1ccc(C)cc1 (stereo not drawn) | 17.2
4 | Cc1ccccc1Nc1nc(N)nc(CSc2nnnn2-c2ccccc2)n1 | -26.5
5 | Cc1cc(C)n2c(SCC(=O)Nc3ccccc3C#N)nnc2n1 | 5.73
6 | N#Cc1ccc(Oc2ccc(-c3cnc4ccccc4n3)cc2)cc1C#N | -9.33
7 | C=CCn1c(SCC(=O)O)nnc1-c1cccc(Cl)c1 | 4.71
8 | c1ccc(Sc2ncnc3ccccc23)cc1 | -1.28
9 | O=C(/C=C/c1ccccc1)c1ccccc1O | 6.1
10 | Cc1ccc(NC(=O)[C@H](C)NC(=O)C2CCN(C(=O)[C@@H](NC(=O)OC(C)(C)C)C(C)C)CC2)cc1 | 2.13
11 | COc1ccc(C(=O)c2cn[nH]c2-c2ccc(C)cc2O)cc1 | -2.49
12 | NC1=NC[C@H](Cc2ccccc2)N1CCCCC1CCCCC1 | -25.9
13 | O=C(CCS(=O)(=O)Cc1ccccc1)NCc1ccco1 | 8.13
14 | COc1ccc(C2N(C(=O)c3ccccc3)CCN2C(=O)c2ccccc2)cc1 | -15.6
15 | O=C(CN1C(=O)C(=O)N(Cc2ccccc2)C1=O)c1ccc[nH]1 | -1.19
16 | [O-][n+]1onc2c1CCc1c-2nn(-c2ccccc2Cl)[n+]1[O-] | -2.46
17 | Cc1ccc2[nH]c(=O)c(C3=NN(C(=O)CCC(=O)O)C(c4cccs4)C3)c(-c3ccccc3)c2c1 (stereo not drawn) | 14.2
18 | COc1ccc(S(=O)(=O)NCc2ccc(C(=O)O)cc2)cc1 | 7.54
19 | Cc1cc(OCC(=O)NCCCn2ccnc2)c2c(C)cc(=O)oc2c1 | -22.5
20 | CCc1ccc(/C=C2/SC(=S)N(CCC(=O)Nc3cccc(C(=O)O)c3)C2=O)cc1 | 1.96
21 | Cc1cccc(Oc2coc3cc(OC(=O)c4cc5ccccc5oc4=O)ccc3c2=O)c1 | -7.1
22 | CC(C)(C)c1cc(C(C)(C)C)n(-c2ccccc2)n1 | 22.1
23 | CN1CCc2c(sc3nc(SCC(=O)N4CCCCC4)n(-c4ccccc4)c(=O)c23)C1 | 14.3

Row | SMILES | hERG current change (%, negative = inhibition) at 10uM [%]
24 | Cc1cc2oc(=O)c3c(c2cc1OCc1nn[nH]n1)CCCC3 | -0.33
25 | Nc1nc(Nc2cccc(F)c2)nc(NCc2ccco2)c1[N+](=O)[O-] | 17.9
26 | CC(=O)c1cccc(OCc2cc(C(=O)N3C[C@@H](C)O[C@@H](C)C3)no2)c1 | 7.8
27 | CC(C)(C#CCN1CCCC1)OCCC#N | 17.8
28 | COC(=O)c1ccc(COc2ccccc2/C=C(\C#N)C(=O)Nc2ccccc2C)cc1 | 2.16
29 | O=S(Cc1ccc(Cl)cc1)CC(O)(c1ccccc1)c1ccccc1 (stereo not drawn) | -12.3
30 | CCCCN(C(=O)CSc1nnc(-c2ccc(OC)cc2)n1C(C)C)c1c(N)n(Cc2ccccc2)c(=O)[nH]c1=O | 11.9
31 | CCCCc1ccc(NC(=S)NCc2ccc(OC)cc2)cc1 | -0.443
32 | O=C(O)CCCC(=O)N1CCCC1 | 21
33 | Nc1cccc(-c2ccc(CO)o2)c1 | 15.7
34 | N#CC1CCN(c2ncccc2[N+](=O)[O-])CC1 | 21
35 | O=[N+]([O-])c1ccc(S(=O)(=O)NNC(=S)NCCc2ccccc2)cc1 | 0.393
36 | O=C(c1cccc(Cl)c1)N(Cc1cccs1)C1CCS(=O)(=O)C1 (stereo not drawn) | -14.1
37 | COc1cc(OC)cc(C(=O)Nc2ccc3nc4n(c(=O)c3c2)CCCCC4)c1 | -48.7
38 | COc1ccc(NC(=O)CSc2nc(C)c3c(c2C#N)CCCC3)cc1 | -1.14
39 | Oc1ccccc1C1=NOC(O)(C(F)F)C1 (stereo not drawn) | -0.864
40 | Cc1nn(C)cc1CNC(=O)COc1ccc(Cl)cc1Cl | 0.705
41 | Cc1ccn2c(=O)c(C(=O)NCCN3CCOCC3)c(O)nc2c1 | 11.9
42 | CC(=O)Nc1ccc(S(=O)(=O)n2cnc(C)c2)cc1 | -35
43 | C=C(C)CN(CC)C(=O)CC1C(=O)NCCN1Cc1c(F)cccc1Cl (stereo not drawn) | 14.8
44 | C=CCN(c1ccccc1)S(=O)(=O)c1ccc2c(c1)NC(=O)C(C)C(=O)N2 (stereo not drawn) | -4.47
45 | Cc1cc(C)c(C)c(N=Nc2nc3ccccc3n2C)c1C | -2.93
